Values joined by “and” are separate entries in the source; they are usually repeats but may differ in a detail not shown here. Equal entries are not always repeated. The campaign covered roughly 390,000 compounds. About 4,000 (1%) were called active. This list was built around the results that the source calls inconclusive (neither active nor inactive); the mix of calls is not that of the screen. Calls come from the whole dose curve; as a rule, active = well fitted inhibition curve with a large enough effect; inconclusive = small, poorly fitted or top-dose-only effect; inactive = no such curve, though single readings can be large or run the other way. Potencies of inconclusive entries are doubtful fits and often do not repeat.
What follows are molecules tested against Thioredoxin reductase 1, cytoplasmic (Rattus norvegicus) (UniProt O89049) (assay: qHTS Assay for Inhibitors of Mammalian Selenoprotein Thioredoxin Reductase 1 (TrxR1): qHTS). Conditions: recombinant rTrxR1, NADPH fluorescence consumption, selenite substrate; series mostly up to 114 µM.
Method in brief: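 Rat TrxR1 (90 nM in the dispensed reagent) was pre-reduced with 400 uM NADPH for 5 min at room temperature, then incubated with compound for 15 min. After 400 uM selenite was added, NADPH fluorescence (Ex 340/Em 450 nm) was followed for 8 min.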
Note: nearly all actives have a fitted effect of over 65% in size.
Potency is the fitted concentration of half-maximal effect; tags give direction and shape of the fitted curve.

UniProt O89049, sequence (O89049 whole entry, looked up): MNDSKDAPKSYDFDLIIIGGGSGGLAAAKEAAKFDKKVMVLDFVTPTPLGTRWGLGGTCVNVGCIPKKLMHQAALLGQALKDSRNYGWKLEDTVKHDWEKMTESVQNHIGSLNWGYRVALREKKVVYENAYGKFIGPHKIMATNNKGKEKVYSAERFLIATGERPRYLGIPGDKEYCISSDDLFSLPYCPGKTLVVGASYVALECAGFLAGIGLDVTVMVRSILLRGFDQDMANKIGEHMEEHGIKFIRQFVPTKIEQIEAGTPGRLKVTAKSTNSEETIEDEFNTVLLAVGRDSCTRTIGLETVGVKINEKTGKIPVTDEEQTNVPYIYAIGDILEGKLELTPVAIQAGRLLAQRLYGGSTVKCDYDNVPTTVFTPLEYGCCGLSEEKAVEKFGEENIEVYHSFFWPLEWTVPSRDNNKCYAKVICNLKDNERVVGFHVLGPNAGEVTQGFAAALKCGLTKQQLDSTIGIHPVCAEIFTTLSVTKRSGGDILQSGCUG

Structure (SMILES) | Potency
O=C(N/N=C/c1ccc[nH]1)c1ccc(O)cc1 | inactive
COc1ccnc(CSC(N)=Nc2cccc(C(F)(F)F)c2)c1 | inconclusive: 89.1 µM [inhibitor, single point]
CN(C)c1ccc(N=Cc2cccn2C)cc1 | inconclusive: 20 µM [inhibitor, full curve]
COC(=O)Cn1c(CN2CCN(C(=O)c3ccco3)CC2)nc2c1c(=O)n(C)c(=O)n2C | inconclusive: 39.8 µM [inhibitor, partial curve]
Oc1ccc2c(c1)OCC1(O)Cc3cc(O)c(O)cc3C21 (configuration not stated) | active: 4.47 µM
c1cc2c3c(cccc3c1)NC(c1ccc3c(c1)OCO3)N2 | inconclusive: 50.1 µM [inhibitor, partial curve, poor fit]
FC(F)(F)c1nnc(-c2ccccc2)nc1Sc1ccc(Cl)cc1 | inconclusive: 50.1 µM [inhibitor, partial curve, poor fit]
CCOC(=O)c1ccccc1NC(=O)N1CCn2c(C)ccc2C1CC (configuration not stated) | inconclusive: 50.1 µM [inhibitor, partial curve, poor fit]
CC(C)C[C@@H](CSc1ccc(Br)cc1)N1CCN(CC(C)C)CCC1=O | inconclusive: 79.4 µM [inhibitor, single point]
CCC(=O)Nc1ccc(NC(=S)NC(=O)Cc2ccccc2)cc1 | inconclusive: 22.4 µM [inhibitor, full curve]
CCc1ccc(OCCCSc2nc(-c3ccc(C(C)(C)C)cc3)nc3cc(=O)[nH]n23)cc1 | inactive
Cc1sc(-n2cccc2)c(C(=O)O)c1C | inconclusive: 44.7 µM [inhibitor, full curve, poor fit]
O=C(CCc1nc2ccccc2c(=O)[nH]1)NCCN1C(=O)S/C(=C\c2ccc(OC(F)F)cc2)C1=O | inconclusive: 100 µM [inhibitor, single point]
O=C1/C(=C/c2cccc([N+](=O)[O-])c2)CCc2ccccc21 | inactive
Cc1ccc(-n2c(=S)[nH]c3sc4c(c3c2=O)CCc2ccccc2-4)cc1 | inconclusive: 7.08 µM [inhibitor, full curve]
NC(=S)Nc1ccc(F)c(F)c1F | inconclusive: 70.8 µM [inhibitor, partial curve, poor fit]
Brc1ccc(Cn2c(-c3cncs3)nc3ccccc32)cc1 | inactive
O=C1CC(Cc2ccccc2)C(=O)N1Cc1ccco1 (configuration not stated) | inconclusive: 20 µM [inhibitor, single point]
COc1ccccc1NC(=O)CSc1nccc(-c2ccco2)n1 | inconclusive: 50.1 µM [inhibitor, partial curve]
CCOC(=O)Nc1ccc2c(CN3C(=O)NC(CC)(CC)C3=O)cc(=O)oc2c1 | inconclusive: 50.1 µM [inhibitor, single point]
CC(=O)OCC1=C(C(=O)O)N2C(=O)[C@@H](NC(=O)CSc3ccncc3)[C@H]2SC1 | inconclusive: 33.6 µM [inhibitor, single point] and inconclusive: 10 µM [inhibitor, partial curve]
Cc1ccc(C2C(C#N)=C(N)Oc3n[nH]c(-c4cccnc4)c32)o1 (configuration not stated) | inconclusive: 56.2 µM [inhibitor, partial curve]
C=CCNC(=O)c1ccc2nc(-c3ccco3)c(-c3ccco3)nc2c1 | active: 7.94 µM
O=C(c1ccc(F)cc1)c1cc2ccc(O)cc2oc1=O | inconclusive: 70.8 µM [inhibitor, partial curve]

Structure (SMILES) | Potency
Cc1ccccc1NC(=S)NCc1ccccc1 | inactive
c1cc(C(c2nnnn2C2CCCC2)N2CCOCC2)ccn1 (configuration not stated) | active: 14.1 µM
C[n+]1ccc(/C=N/Nc2nc(Cl)c(C#N)c(Cl)c2Cl)cc1 | active: 3.55 µM
O=C(Nc1nc2c(s1)CCCC2)c1cccnc1 | inconclusive: 89.1 µM [inhibitor, single point]
C=CCn1c(SCc2ccccc2C#N)nnc1-c1cc(Br)ccc1O | inactive
CNC(=O)c1c[nH]c2ccc(S(=O)(=O)Nc3cccc(SC)c3)cc2c1=O | inactive
COc1cc(O)c(C(CC(=O)N2CCN(c3ccccc3)CC2)c2cc(OC)c(OC)c(OC)c2)c(OC)c1 (configuration not stated) | inconclusive: 70.8 µM [inhibitor, single point]
O=C(C=P(c1ccccc1)(c1ccccc1)c1ccccc1)c1ccccc1-c1ccccc1C(=O)C=P(c1ccccc1)(c1ccccc1)c1ccccc1 | inconclusive: 50.1 µM [inhibitor, partial curve, poor fit]
S=C(Nc1ccccc1Cl)NC1CCN(Cc2ccccc2)CC1 | inconclusive: 39.8 µM [inhibitor, partial curve]
CCn1nc(-c2ccccc2)c2nc3ccccc3nc21 | inactive
CCOC(=O)c1cnn(-c2ccc(C(=O)Nc3ccc(OC(F)(F)F)cc3)cc2)c1N | inactive
CC(NC(=O)Cn1nc(C(=O)O)c2ccccc2c1=O)c1ccccc1 (configuration not stated) | inactive
Cc1ccc(NCCC(=O)c2cccc([N+](=O)[O-])c2)cc1 | active: 3.55 µM
CCc1nc2nc(C)cc(Nc3cc(Cl)ccc3C)n2n1 | inactive
O=C1C(O)=C(O)C(=O)c2ccccc21 | inconclusive: 89.1 µM [inhibitor, single point]
O=C(COC(=O)c1ccc([N+](=O)[O-])s1)NCCc1ccccc1 | inconclusive: 50.1 µM [inhibitor, partial curve, poor fit]
O=C(Nc1nnc(SCCC2OCCO2)s1)C1CC(=O)N(c2ccccc2)C1 (configuration not stated) | inconclusive: 70.8 µM [inhibitor, partial curve]
O=C1OCCN1C(=O)[C@H]1[C@H](c2ccc([N+](=O)[O-])cc2)C(c2ccc(F)cc2)=NN1c1ccc(Br)cc1 | inactive
CC(=O)NC(c1cccs1)c1cc(F)c2cccnc2c1O (configuration not stated) | inactive
COc1cccc(NC(=O)CN(C2=NC3CS(=O)(=O)CC3S2)c2cccc(C)c2)c1 (configuration not stated) | inactive
Cc1cccc(OCCN2C(=O)C(=O)c3cccc(C)c32)c1 | inactive
Nc1nc(-c2ccc(Br)cc2)c(S(=O)(=O)c2ccccc2)s1 | inactive
CCOC(=O)C(NS(=O)(=O)c1ccccc1)(C(F)(F)F)P(=O)(OC(C)C)OC(C)C (configuration not stated) | inconclusive: 50.1 µM [inhibitor, partial curve]
S=C(Nc1ccc(N2CCOCC2)cc1)Nc1ccc2nc(-c3ccco3)c(-c3ccco3)nc2c1 | active: 2.51 µM

Structure (SMILES) | Potency
O=C(CCCn1ncn2c(cc3occc32)c1=O)NCc1cccc(Cl)c1 | inconclusive: 79.4 µM [inhibitor, single point]
Cc1ccc(C(=O)Nc2ccccc2C(=O)NC(Cc2c[nH]c3ccccc23)C(=O)O)cc1 (configuration not stated) | inconclusive: 79.4 µM [inhibitor, single point]
Cc1nc2ccccn2c1C(=O)Nc1ccc2c(c1)OCCO2 | inactive
S=c1nc(-c2ccccc2)[nH]c2ccc(Br)cc12 | inactive
COc1ccc(-c2nnc(SC(C)C(=O)NCc3ccc4c(c3)OCO4)n2Cc2ccco2)cc1 (configuration not stated) | inconclusive: 70.8 µM [inhibitor, single point]
Cc1cc(C)cc(N(CCC#N)C(=O)COC(=O)CCc2c[nH]c3ccccc23)c1 | inactive
CCOC(=O)c1ccccc1NC(=O)CSc1nc2ncccc2o1 | inactive
Cc1cccc(-c2nc(CS(=O)CC(=O)N3CC(C)CC(C)C3)c(C)o2)c1 (configuration not stated) | active: 39.8 µM
CC1=CC(C)(C)N2C(=O)C(=Nc3ccc(O)cc3)c3cccc1c32 | inconclusive: 50.1 µM [inhibitor, partial curve, poor fit]
COc1ccc(/C=N/N2C(=O)CSC2=S)cc1 | inconclusive: 12.6 µM [inhibitor, full curve]
Cc1cc2c(cc3c(SCc4ccc(Cl)cc4)nnc(C)n32)o1 | inactive
COc1ccc(NC(=O)CSc2oc(-c3ccc(C)cc3)nc2S(=O)(=O)c2ccc(C)cc2)c(OC)c1 | active: 50.1 µM
COc1ccc(-c2nc(CSCC(=O)NCCCN3CCCC3=O)c(C)o2)cc1 | inactive
COc1ccc2cc3cc(C(=O)NCc4ccccn4)oc3nc2c1 | inconclusive: 25.1 µM [inhibitor, single point]
O=C(CBr)c1ccc([N+](=O)[O-])c(CS(=O)(=O)c2ccc(Cl)cc2)c1 | inconclusive: 11.2 µM [inhibitor, partial curve, poor fit]
O=C(c1ccc([N+](=O)[O-])s1)N1CCCc2ccccc21 | inconclusive: 14.1 µM [inhibitor, partial curve, poor fit]
CC(Sc1nc(N)c(NC(=O)c2ccc(Br)o2)c(=O)[nH]1)C(=O)O (configuration not stated) | inactive
Oc1ccc(CN2CCc3ccccc3C2)c2cccnc12 | inconclusive: 50.1 µM [inhibitor, partial curve]
COc1ccc(CNC(=O)CCCNS(=O)(=O)c2cccc3nonc23)cc1 | inconclusive: 70.8 µM [inhibitor, partial curve, poor fit]
O=C1CN(C(=O)COc2ccc([N+](=O)[O-])cc2Cl)c2ccccc2N1 | inactive
COc1ccc(C(=O)Nc2ccccc2-c2ccccc2)cc1Cl | inactive
COc1ccccc1C1C2=C(N=c3s/c(=C/c4cccc(OCC(=O)O)c4)c(=O)n31)c1ccccc1CC2 (configuration not stated) | inconclusive: 79.4 µM [inhibitor, partial curve]
Cc1cccc2c1-c1sc(C(=O)NCCc3ccc(Cl)cc3)cc1CO2 | inactive
O=[N+]([O-])c1ccc(NN=C2CCCCC2)c([N+](=O)[O-])c1 | inconclusive: 89.1 µM [inhibitor, single point]

From PubChem BioAssay AID588453 (National Center for Advancing Translational Sciences (NCATS), 2011)
